Some of the results follow.
B1: chrX:50586795:50596694:-|three_prime_utr|ENSG00000158352|control|control|control (ssRNA)
RNA: GGGAGUUCUACAGUCCGACGAUCAGCACUCUGCCACAGCAUCCCUGCCCAGCCAUGUGGGAAGUGCUUUCAAUCUUCUUUGUUAGCAGUUUCUCAGCAAGUAGAUAGCAAUUAGCAGUUUGUUCCAGCCCUCUACCCUGGAUGCAACAGAGGAUUGAGCAUCA
B2: chr19:13095865:13096029:+|3pUTR|ENSG00000008441|msi1|total|mutant (ssRNA)
RNA: GGGAGUUCUACAGUCCGACGAUCCCGCCCCCCACGUGGCCACUUUUCUCUGGAUUUCCGCUGUAAUGUCUUUACUCUUUAUUCCGGGGUGGGGCAUUCAUUGUUUGGGUCUUUUGCUGUUGGAAUGGGAACUCCUCCUCCAUUCAACAGAGGAUUGAGCAUCA
B3: chr5:76733371:76733472:+|CDS|ENSG00000181104|msi1|FALSE|unique (ssRNA)
RNA: GGGAGUUCUACAGUCCGACGAUCGAUCCCAGCAGUUAUAACAGCAGUGGGCAGUUGAUGGCAAGUAAAAUGGAUACCUGCUCUAGUAACCUGAAUAACAGCAUAUACAAAAAGCUGUUAACUUAGGAAAAGGGACUGCUGGGACAACAGAGGAUUGAGCAUCA
B4: chr17:77200548:77200649:+|CDS|ENSG00000129657|msi1|FALSE|bound_elsewhere (ssRNA)
RNA: GGGAGUUCUACAGUCCGACGAUCUAUUGACAAAGCCAGAGAGAUCAUGUGUCAGUCUUUGACGUGGAGAAAGCAGCAUCAGGUAGACUACAUUCUUGAAACCUGGACCCCUCCUCAGGUCCUUCAGGAUUACUACGCGGGAGGCAACAGAGGAUUGAGCAUCA
B5: ENSG00000136451:be:win_1951|3pUTR|ENSG00000136451|bound_else_gene|NA|bound_elsewhere_windowed (ssRNA)
RNA: GGGAGUUCUACAGUCCGACGAUCCAAGGUGGAUGGCUGAUUUUAACCUGAAAUUUUAAAUCCACAGAUUGAGAGCUAGUGUAGAAUUGUCUGUGUUUAUUGUUUUUAUGAGUAAAUACAUGCAUUGUCAUAAUAAAAUGCAUUCAACAGAGGAUUGAGCAUCA
B6: chrX:154027874:154027956:-|3pUTR|ENSG00000169057|msi1_unk|FALSE|overlapping (ssRNA)
RNA: GGGAGUUCUACAGUCCGACGAUCUGGUUAGAAGUGAGGGAGUUUGCCCCGUUCUGUUUGUAGAGUCUCAUAGUUGGACUUUCUAGCAUAUAUGUGUCCAUUUCCUUAUGCUGUAAAAGCAAGUCCUGCAACCAAACUCCCAUCCAACAGAGGAUUGAGCAUCA
B7: chr17:7460970:7461071:-|3pUTR|ENSG00000174282|msi1|total|mutant (ssRNA)
RNA: GGGAGUUCUACAGUCCGACGAUCGGAUGGAGAAGGGAAUCUACUUUCUCCCUGUUUUUUUUUCCUGAUGGUUUCUCCCAGACCCGACCAAACCGCCAGAAAAAUGACCGGGGUCGGAUGGGUGGGUAAGCCCAGGAUUUGCACCAACAGAGGAUUGAGCAUCA
B8: chr14:73713276:73713377:-|CDS|ENSG00000176903|unk|FALSE|unique (ssRNA)
RNA: GGGAGUUCUACAGUCCGACGAUCGGGCAAAGGAGGGGUCUGGAAAGUGUUAUUUAAGCCCCCAACUUCUGAUGCUGAAUUUUUAGAAAGAUUGCACCUCUUCCUAGCUAGAGAGGGGUGGACCGUGCAAGAUGUUGCCCGUGUCAACAGAGGAUUGAGCAUCA
B9: chr6:111694403:111694505:-|CDS|ENSG00000010810|unk|FALSE|bound_elsewhere (ssRNA)
RNA: GGGAGUUCUACAGUCCGACGAUCAAUGGCUUACAUCGAGCGCAUGAAUUAUAUCCAUAGAGAUCUGCGAUCAGCAAACAUUCUAGUGGGGAAUGGACUCAUAUGCAAGAUUGCUGACUUCGGAUUGGCCCGAUUGAUAGAAGACAACAGAGGAUUGAGCAUCA
B10: ENSG00000079335:stop:overlap|stop_codon|ENSG00000079335|stop_codon|NA|stop_codon (ssRNA)
RNA: GGGAGUUCUACAGUCCGACGAUCUUGGUGGAAAUCUUUCAAAAACACAAAACAUGGAACGAUUUGGAGAGGUAAGUUUUCCCUAGGAGAUUCUAUCUUCUUAAAACUGAUGUUCUGCAUUUGUUUCUCAGUUGGACCUAUAUACAACAGAGGAUUGAGCAUCA
B11: chr12:118033712:118033825:-|3pUTR|ENSG00000176871|unk|total|mutant (ssRNA)
RNA: GGGAGUUCUACAGUCCGACGAUCCCUCCGCUGGGAACGAUGGCUUCUGCCCCGUACCUAUCCUUGUGUUUCUGAUGCAGUGGCCGCAUUGGUUCAAGUUCUCUCCUGCUGUGGUCAGAGUUGCUUCGAUGUUGGCCAAGUGCUCAACAGAGGAUUGAGCAUCA
B12: chr12:49764829:49764866:+|3pUTR|ENSG00000139644|msi1_unk|FALSE|overlapping (ssRNA)
RNA: GGGAGUUCUACAGUCCGACGAUCACUUUUAAAGAAAAUACCUAACAGAUUUUUAAUAUAGUUAUCUCUACCACUUUCUUUUCUAGUUUCUUGAUUUUCAGCUCAGGCUGCAUUCUAACUCAUACUGUGAAGACAAAGGUGUUUCAACAGAGGAUUGAGCAUCA
B13: chr5:72208420:72208520:+|3pUTR|ENSG00000131711|msi1_unk|total|mutant (ssRNA)
RNA: GGGAGUUCUACAGUCCGACGAUCCUCAUGAUCAUGACCUUUUUGGCCGUAUUCUUAAACAAAAUUCUACAGAGACUAAAUGUCCGCGAUGAUCCUCCAUUUUCAAUUUUAACCAAUUCUGUCCCCUUUCUCAAAACCCUGAGCCAACAGAGGAUUGAGCAUCA
B14: chr11:9429001:9429102:+|CDS|ENSG00000205339|msi1_unk|FALSE|overlapping (ssRNA)
RNA: GGGAGUUCUACAGUCCGACGAUCGGUACUUCACUAUUUUUGUGAAGUGAAGUUCAAAAGUGAUCAGAACCUUCAAACAGCCUUAGAGCUAACAAGAAGAUGUCUGAUUGAUGAUAGAGAAAUGCCUGUGAAAGUGGAAGCUGCCAACAGAGGAUUGAGCAUCA

Biological target: T1, UNK ZnF1-6 (called full-length) (human, UniProt Q9C0B0 30-357)
T1 sequence: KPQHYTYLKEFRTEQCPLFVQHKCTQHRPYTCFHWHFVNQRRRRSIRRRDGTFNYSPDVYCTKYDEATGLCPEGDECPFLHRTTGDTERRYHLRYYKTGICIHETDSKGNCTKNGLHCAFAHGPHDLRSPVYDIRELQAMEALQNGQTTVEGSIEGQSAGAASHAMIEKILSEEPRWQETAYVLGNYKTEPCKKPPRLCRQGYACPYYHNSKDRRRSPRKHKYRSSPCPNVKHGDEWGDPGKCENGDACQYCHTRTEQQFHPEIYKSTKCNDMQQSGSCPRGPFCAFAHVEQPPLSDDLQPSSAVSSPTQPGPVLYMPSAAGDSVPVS
Experiment: nsRBNS (natural sequence RNA bind-n-seq); RBNS binding buffer (assumed for nsRBNS): 25 mM Tris pH 7.5, 150 mM KCl, 3 mM MgCl2, 0.01% Triton X-100, 500 ug/ml BSA, 20 U/ml SUPERase-In, 4 C; UNK is unkempt and MSI1 is Musashi-1; names of the RNAs are library labels; protein concentration not given here; high values mean tight binding

| Binder | binding signal [enrichment R] |
| --- | --- |
| B1 | 1.24 |
| B2 | 0.901 |
| B3 | 0.621 |
| B4 | 0.592 |
| B5 | 0.482 |
| B6 | 0.635 |
| B7 | 0.495 |
| B8 | 0.861 |
| B9 | 0.509 |
| B10 | 1.83 |
| B11 | 0.583 |
| B12 | 1.38 |
| B13 | 1 |
| B14 | 0.336 |

Source: article PMC12136788
